Source: PubChem BioAssay AID1508624 (National Center for Advancing Translational Sciences (NCATS), 2021)
The whole screen tested about 48,000 compounds, of which about 120 (0.25%) were called active. Inconclusive results, whose numbers are uncertain, are shown with a selection of clear calls. The call rests on the fitted dose curve; in most records, active means well fitted activation curve with a large enough effect; inconclusive means small, poorly fitted or top-dose-only effect, or another doubt; inactive means no such curve, though single readings can be large or run the other way. Where the call is inconclusive, the potency comes from a doubtful curve fit.
Potency means the concentration at half of the fitted maximal effect; tags describe the fitted curve by direction and shape.

Experiment: Primary qHTS for Identification of Small Molecule Activators of Huntingtin-Antisense Promoter Activity; further: nearly all actives have a fitted effect of over 55% in size
Settings: HEK293 HTT-AS promoter firefly luciferase reporter, 24 h; activity change, positive = activation: at 57.5 µM (top of the series), percent change from vehicle, -100% = no light unless noted
Summary of the method: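 Luminescence was read after Dual-Glo reagent and a 10 min room-temperature incubation. Values were normalized to vehicle (0% activity) and zero RLU (-100% activity). Reporter HEK293 cells had been exposed to compounds (up to 57.5 uM final) for 24 h.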
For `Cc1ccc2nc(/C(C#N)=C/c3ccccc3F)[nH]c2c1`, the Potency was inconclusive: 3.16 µM [activator, partial curve, poor fit].
In the case of `COc1ccc2c(CNCCc3ccc(SC)cc3)c(C(=O)O)n(Cc3ccc(F)cc3)c2c1`, the Potency is reported as “inactive”.
In the case of `COc1ccc(CNC(=O)c2sc3nc4n(c(=O)c3c2C)CCCC4)cc1`, the Potency is reported as inconclusive: 11.2 µM [activator, partial curve, poor fit].
In the case of `COc1ccc2cc([C@H](C)C(=O)O)ccc2c1`, the Potency is reported as inconclusive: 43.2 µM [activator, single point].
With `Cc1nc2cc(-c3ccccc3)nn2c(C)c1CCC(=O)N1CCN(c2ccc(F)cc2)CC1` the Potency was “inactive”.
With `COc1cc(C2CC(=O)N(Cc3cccc(F)c3)c3ccccc3S2)cc(OC)c1OC` (stereo not drawn) the Potency was “inactive”.
For `COc1cccc(-c2nnc(SCC(=O)N3CCCCC3)o2)c1`, the Potency was inconclusive: 17.8 µM [activator, partial curve, poor fit].
In the case of `COc1cccc(CNS(=O)(=O)c2ccc3[nH]c4c(c3c2)CCCCC4)c1`, the Potency is reported as “inactive”.
With `O=C(NCC(c1ccc2c(c1)OCO2)N1CCN(c2ccccc2)CC1)C(=O)Nc1ccc(F)cc1` (stereo not drawn) the Potency was inconclusive: 28.2 µM [activator, single point].
For `COC(=O)c1sccc1S(=O)(=O)N(CC(=O)NCc1ccc(C)cc1)c1ccccc1`, the Potency was “inactive”.
For `Cc1cccc(N2CCN(C(=O)c3ccc4nc(N5CCC(C)CC5)sc4c3)CC2)c1C`, the Potency was “inactive”.
With `Cc1ccc(NC(=O)CN2C(=O)c3cccnc3Sc3ccccc32)cc1C` the Potency was inconclusive: 11.2 µM [activator, partial curve, poor fit].
With `Cc1cc(C)n2nc(CNC(=O)c3cccc(N(C)C)c3)nc2n1` the Potency was inconclusive: 15.8 µM [activator, partial curve, poor fit].
With `C=C1c2cccc(O)c2C(O)=C2C(=O)[C@]3(O)C(O)=C(C(N)=O)C(=O)[C@@H](N(C)C)[C@@H]3[C@@H](O)[C@H]12` the Potency was “inactive”.
For `CC1CCN(c2ccc(-c3nc(-c4ccccc4)no3)cc2[N+](=O)[O-])CC1`, the Potency was inconclusive: 2.51 µM [activator, full curve, poor fit].
For `CCOc1ccc2nc(N3CCC(C(=O)Nc4cc(C)ccc4C)CC3)sc2c1`, the Potency was inconclusive: 10 µM [activator, partial curve].
With `COCCCNC(=O)c1ccc2c(c1)nc1n2CCCCC1` the Potency was inconclusive: 2 µM [activator, full curve, poor fit].
For `CCOc1ccccc1-c1noc(CSc2nnc(-c3ccccc3)n2-c2cccc(C)c2)n1`, the Potency was “inactive”.
In the case of `CC(C)(C)C(=O)Nc1ccc(-c2nc3ccccc3s2)cc1`, the activity change, positive = activation is reported as inconclusive: -90.1% [activator].
In the case of `COc1ccc(C(=O)Nc2cnc3ccccn3c2=O)cc1`, the Potency is reported as inconclusive: 1.78 µM [activator, full curve, poor fit].
With `COc1ccccc1CNc1ccc(-c2nc(-c3ccccn3)no2)cc1[N+](=O)[O-]` the Potency was inconclusive: 1.41 µM [activator, full curve, poor fit].
In the case of `O=c1oc2cc(O)ccc2s1`, the Potency is reported as “inactive”.
For `O=C(Nc1ccc2oc(-c3ccccc3)nc2c1)c1ccc2ccccc2c1`, the Potency was inconclusive: 3.55 µM [activator, single point].
In the case of `Clc1cccc(-n2ncc3c(NCCc4ccccc4)ncnc32)c1`, the Potency is reported as inconclusive: 7.08 µM [activator, full curve, poor fit].
With `COc1cccc(CN2CCc3nc(Nc4ccc5c(c4)OCCO5)ncc3C2)c1OC` the Potency was “inactive”.
With `CC(=O)Nc1ccc(OCc2cc(=O)n3ccccc3n2)cc1` the Potency was inconclusive: 1.58 µM [activator, full curve].
In the case of `Cc1ccc(OCC(=O)Nc2nnc(SCc3cc(=O)c4ccccc4[nH]3)s2)cc1C`, the Potency is reported as “inactive”.
For `COc1ccc(NC(=O)c2coc(=O)c3ccccc23)cc1OC`, the Potency was inconclusive: 3.16 µM [activator, partial curve, poor fit].
For `O=C(NCc1ccccc1Cl)c1ccc2c(c1)nnn2C1CCCC1`, the Potency was inconclusive: 20 µM [activator, partial curve, poor fit].
With `CCOc1ccc(-c2nc(Cn3c(=O)cc(C)c4c(C)nn(-c5ccccc5)c43)c(C)o2)cc1` the Potency was “inactive”.
For `CCOc1cc2sc(N3CCC(C(=O)Nc4ccc(CC)cc4)CC3)nc2cc1Br`, the Potency was inconclusive: 1 µM [activator, full curve].
With `CC(C)OC(=O)C(C)(C)Oc1ccc(C(=O)c2ccc(Cl)cc2)cc1` the Potency was inconclusive: 43.2 µM [activator, single point].
With `CCCCN(CCCNC(=O)c1cc(Nc2cccc(SC)c2)nc2ccccc12)Cc1ccccc1` the Potency was “inactive”.
For `Clc1ccc2c(N3CCN(CCCN4CCN(c5ccnc6cc(Cl)ccc56)CC4)CC3)ccnc2c1`, the Potency was inconclusive: 9.43 µM [activator, partial curve].
For `CCCCNC(=O)c1cccc(NC(=O)c2nsc3ccccc23)c1`, the Potency was inconclusive: 1 µM [activator, partial curve, poor fit].
For `COc1ccc2c(c1)c1c(c(=O)n(Cc3ccccc3)c(=O)n1CC(=O)Nc1ccccc1OC)n2C`, the activity change, positive = activation was inconclusive: -45.9% [activator].
With `Cc1cc(Nc2ccc(Br)cc2)nc(C)n1` the Potency was inconclusive: 12.6 µM [activator, partial curve].
With `COc1ccc2[nH]c3c(c2c1)CCN(C(=O)CCC1CCCC1)C3c1ccc(F)cc1` (stereo not drawn) the Potency was “inactive”.
In the case of `COCc1nc2ccccc2n1Cc1ccc(C(C)(C)C)cc1`, the Potency is reported as inconclusive: 2 µM [activator, partial curve, poor fit].
For `Cc1ccc2nc(COc3cccc(NC(=O)Nc4ccc(C)c(Cl)c4)c3)cc(=O)n2c1`, the Potency was inconclusive: 25.1 µM [activator, single point].
For `CCOc1cc(Cl)c(S(=O)(=O)n2cc(C)nc2CC)cc1Cl`, the Potency was “inactive”.
For `COc1cccc(NC(=O)Nc2cc(-c3cn4cccnc4n3)ccc2OC)c1`, the Potency was inconclusive: 11.2 µM [activator, partial curve].
For `COc1ccc(CCNC(=O)C(=O)Nc2ccc(C)c(C)c2)cc1OC`, the Potency was inconclusive: 39.8 µM [activator, single point].
